Data taken from PubChem BioAssay AID493208 (National Center for Advancing Translational Sciences (NCATS), 2011).
Out of some 44,000 compounds screened, about 340 (0.77%) were called active. Roughly 5% stayed inconclusive and do not appear here. The call rests on the fitted dose curve; in most records, active means well fitted inhibition curve with a large enough effect; inconclusive means small, poorly fitted or top-dose-only effect; inactive means flat fitted curve, though single readings scatter. This is one part of the list.

Assay: Acumen qHTS Assay for Inhibitors of the mTORC1 Signaling Pathway in MEF (Tsc2-/-, p53-/-) Cells: Sytravon;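 further: plate controls were DMSO for no effect and rapamycin for full effect; nearly all actives have a fitted effect of over 50% in size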
Conditions: phospho-rpS6 immunofluorescence/PI, 24 h; series mostly up to 38.3 µM; activity change, negative = inhibition: at the top concentration
Summary of the method: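 Tsc2-/-, p53-/- MEFs (empty-vector stable line) in DMEM + 10% FBS were treated with compounds 24 h at 37 degree Celsius, fixed, and immunostained for phospho-rpS6 (Alexa-488) with propidium iodide counterstain. Laser-scanning cytometry gave % positive cells, normalized against 7.5 nM rapamycin and DMSO.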

Activity change, negative = inhibition, inactive:
CC1=C(C(=O)NCc2ccccc2Cl)C2(CCCCCC2)OC1=O -0.617%
CCOC(=O)C1CCN(C(=O)Cn2nc(C)n3c(cc4sccc43)c2=O)CC1 -6.74%
Cc1ccccc1Cn1c(CN2CCC(C(=O)NCc3cccnc3)CC2)cc2ccccc21 -8.35%
Cn1c(SCC(=O)N2CCOCC2)ncc(C(=O)Nc2ccccc2)c1=O 3.23%
Cc1ccc(CNC(=O)CSc2ncc(S(=O)(=O)c3ccc(Br)cc3)c(=O)[nH]2)cc1 -1.04%
Nc1c(C(=O)Nc2ccccc2Cl)c2ccccn2c1C(=O)c1ccc(Cl)cc1 -7.76%
COc1ccc(NC(=O)CSc2nc3c([nH]c4ccccc43)c(=O)n2C)cc1 -13.9%
CCc1nn(CC(=O)NCCC(C)C)c(=O)c2cc3occc3n12 -1.86%
CCn1c(C)c(C2N3CC4(C)CN2CC(CC)(C3)C4=O)c2ccccc21 (stereo not drawn) 2.2%
COc1ccc(NS(=O)(=O)c2ccc3c(c2)C(C(C)C)C(=O)N3)cc1 (stereo not drawn) 2.87%
Cc1ccc(CNC(=O)C(=O)NCC(c2cccs2)S(=O)(=O)c2ccc(C)cc2)cc1 (stereo not drawn) -3.01%
COC(=O)c1sccc1S(=O)(=O)N(CC(=O)NCc1ccccc1)c1ccccc1 -11.3%
Cc1c(C(=O)N2CCC(C)CC2)c(S(=O)(=O)NCc2ccccc2)c(C)n1C 0%
Cc1nn(C(=O)c2ccccc2F)c(C)c1S(=O)(=O)N1CCOCC1 -1.61%
COc1ccc(Nc2ncnc3c2cnn3-c2ccc(C)cc2C)cc1 -0.524%
COc1cccc(CC(=O)Nc2ccc3nc(N4CCC(C)CC4)cc(C)c3c2)c1 11.9%
CCOc1ccccc1NS(=O)(=O)c1c(C)nc2sccn2c1=O 3.94%
Cc1ccc(C(=O)Nc2ccc(Br)cc2)cc1S(=O)(=O)N1CCOCC1 -5.12%
CC(=O)c1cccc(NC(=O)Cn2c(=O)c(CNc3ccc(C)cc3)cc3cc4c(cc32)OCCO4)c1 -0.224%
CCn1c(=O)c2cc(C(=O)N(CCCOC(C)C)Cc3ccco3)sc2c2ccccc21 -9.37%
Cc1ccc(-c2sc(C(=O)Nc3ccc(Br)cc3)cc2CC(=O)O)cc1 -1.22%
Cc1cc(C)c(NC(=O)Cn2c(SCC(=O)NCc3ccccc3)nc3ccccc32)c(C)c1 24.2%
COc1cccc(CNC(=O)C2CCN(S(=O)(=O)c3ccc4c(ccn4C)c3)CC2)c1 0.037%
COc1ccc(-c2cn3cccnc3n2)cc1NC(=O)c1c(F)cccc1F -16.7%
CSc1ccc(C2c3[nH]c4ccccc4c3CCN2C(=O)CCc2ccccc2)cc1 (stereo not drawn) 0.465%
COc1cc(Cl)c(C)cc1NC(=O)CCn1c(=O)c2cccn2c2cccnc21 3.88%
Cc1ccc(-n2nc3c(=O)n(CCCC(=O)NCCc4ccccc4)nc(C)c3c2C)cc1 1.88%
CC(C)c1nc2ccc(C(=O)NCc3ccc(N(C)C)cc3)cc2o1 -17.6%
COc1ccc(C)cc1Nc1nc2ccccc2c2nnc(C)n12 2.1%
Cc1cccc(CCNC(=O)CCS(=O)(=O)c2cc3c(cc2Cl)NC(=O)CO3)c1 0%
CCN1CCN(C(c2cccc(F)c2)c2c(O)cc(C)n(CCOC)c2=O)CC1 (stereo not drawn) 0.877%
COc1ccc(Cl)cc1NC(=O)c1cc(S(=O)(=O)N2CCC(C)CC2)cn1C -3.58%
CCc1nc2cccnc2n1-c1ccc(CC(=O)Nc2ccccc2Cl)cc1 1.02%
Cc1cccc(NC(=O)CSc2nc3c(oc4ccccc43)c(=O)n2Cc2ccco2)c1 3.11%
CC(C)C(=O)Nc1ccc2nc(SCC(=O)N3CCOCC3)sc2c1 -5.67%
Cc1cc(NS(=O)(=O)c2ccc3nc(-c4ccccc4)[nH]c3c2)ccc1Br 2.62%
CCOC(=O)c1c(N)n(-c2ccccc2CC)c2nc3ccccc3nc12 -0.281%
COc1ccccc1-c1noc(CSc2nnc(Cc3ccccc3)n2-c2ccc(C)c(C)c2)n1 -1.97%
Cc1ccc(C)n1-c1nnc(N2CCC(C(=O)NCc3ccc(F)cc3)CC2)s1 0.859%
Cc1ccc(N2CC(c3nnc(NC(=O)c4ccco4)s3)CC2=O)cc1Cl (stereo not drawn) 0.706%
O=S(=O)(c1ccc(Br)cc1)c1nnn2c1nc(NC1CCCCCC1)c1sccc12 -3.04%
CCC(=O)Nc1sc2c(c1C(=O)Nc1ccccc1C)CCC(C)C2 (stereo not drawn) -4.65%
Cn1c(=O)c2sccc2n2c(CCC(=O)N3CCN(c4ccccc4)CC3)nnc12 1.11%
Cc1ccc(-n2nc3ccc(NC(=O)c4cc5ccccc5o4)cc3n2)cc1 -5.2%
CCC(Cc1ccccc1)NC(=O)c1oc(=O)c2ccccc2c1-c1ccccc1 (stereo not drawn) -0.94%
COC(=O)c1ccccc1NC(=O)c1noc2c1CSc1ccccc1-2 -3.3%
COc1ccc2nc(NC(=O)c3ccc(S(=O)(=O)N4CCC(C)CC4)cc3)sc2c1 2.89%
CCOC(=O)c1cccc(NC(=O)NCCc2c(C)nn(C)c2C)c1 0%
Cc1cccc(C)c1OCCCCn1c(C2CC(=O)N(c3ccc(F)cc3)C2)nc2ccccc21 (stereo not drawn) -8.74%
CCc1ccc(NC(=O)N2CCN(Cc3cc(=O)n4nc(-c5ccccc5OC)sc4n3)CC2)cc1 -11%
COC(=O)c1cc2occc2n1CC(=O)Nc1cccc(SC)c1 -10.2%
COc1ccc(-c2cc(C(=O)Nc3cc(C)ccc3O)no2)cc1OC -9.42%
CCn1c(=N)c(C(=O)NCc2cccnc2)cc2c(=O)n3cc(C)ccc3nc21 -10.8%
O=S(=O)(NCC(c1ccco1)N1CCN(c2ccc(F)cc2)CC1)c1ccccc1 (stereo not drawn) -10.1%
COc1ccc(-c2nc(CSCC(=O)NCCc3ccc(C)cc3)c(C)o2)cc1OC -1.29%
CCCCN(Cc1ccccc1)S(=O)(=O)c1ccc2c(c1)CC(C)N2C(=O)CC (stereo not drawn) -9.43%
COc1ccccc1Cc1nc2ccccc2nc1SCC(=O)NCCc1ccccc1 -8.9%
CCN(CC)CCCNC(=O)c1c(C)oc2ncnc(N3CCOCC3)c12 -1.64%
CCOC(=O)Cn1cc2c(c1-c1ccc(Cl)cc1)c(=O)n(C)c(=O)n2C 3.43%
CCc1noc2nc(C)n(CC(=O)O)c(=O)c12 5.11%
CN(C(=O)CSc1nc2ccccc2n1CC(=O)NCc1ccc(F)cc1)c1ccc(F)cc1 0%
CCS(=O)(=O)c1ccccc1C(=O)N(Cc1cccnc1)c1nc2cc(C)c(C)cc2s1 -3.25%
CCOc1ccc(CNC(=O)c2ccc(NC(=O)c3nsc4ccccc34)cc2)cc1 -6.87%
Cc1cccc(-n2c(=O)c3c(c4cc(C)ccc4n3C)n(CC(=O)Nc3ccccc3C(F)(F)F)c2=O)c1 -10.5%
c1ccc(C(c2cccs2)c2c[nH]c3ccccc23)cc1 (stereo not drawn) 8.39%
Cc1ccc(-c2noc(CN(C3CCCCC3)S(=O)(=O)c3ccc(Cl)cc3)n2)cc1 3.42%
COc1ccc(-c2nc3n(n2)C(c2ccccc2F)C(C(=O)Nc2cccnc2)=C(C)N3)cc1OC (stereo not drawn) -18%
Cc1ccc(CNc2ncnc3c2c(-c2ccccc2)cn3-c2cccc(Cl)c2)cc1 12.8%
CCCCN(C(=O)c1cccc(S(=O)(=O)N2CCCCC2)c1)C1CCS(=O)(=O)C1 (stereo not drawn) -16.7%
COCCCNC(=O)c1sc2ncccc2c1-n1cccc1 2.42%
O=C(Nc1ccc(F)c(Cl)c1)N1CCN2CCCCC2C1 (stereo not drawn) -2.68%
COc1ccc(NCc2ccccc2-c2nnc(-c3ccccc3)o2)cc1Cl -1.77%
CCN(CC)c1ccc(-c2nc(-c3ccncc3)no2)cc1[N+](=O)[O-] 6.1%
CCc1cccc2sc(N3CCN(C(=O)C4CC4)CC3)nc12 -0.611%
Cc1cc(NC(c2nnc(-c3ccccc3)o2)c2ccccc2F)ccc1Br (stereo not drawn) -14.4%
CCN1C(=O)c2cccc3c(S(=O)(=O)Nc4ccc(O)c(C(=O)O)c4)ccc1c23 -2.36%
CCS(=O)(=O)Nc1cc(-c2cn3ccc(C)cc3n2)ccc1C -0.647%
CC(C)(C)OC(=O)N1CCC(c2c(C(=O)N3CCc4ccccc4C3)cnn2-c2ccc(Cl)cc2)CC1 -7.83%
CCOc1ccccc1C(=O)N(Cc1ccc(N(C)C)cc1)CC1CCCO1 (stereo not drawn) -11.1%
Cc1cc(C)cc(C(=O)N2CC(=O)Nc3ccc(C)cc3C2c2ccccc2)c1 (stereo not drawn) 16.2%
CCCCNC(=O)CSc1nc2cc3c(cc2c(=O)n1CCCC(=O)NCc1ccc2c(c1)OCO2)OCO3 -3.47%
COc1ccccc1NC(=O)CSc1ncc2c(n1)-c1ccccc1N(Cc1ccccc1C)S2(=O)=O 2.31%
CCOC(=O)C1CCCN(S(=O)(=O)c2cc(-c3cc(C)no3)ccc2OC)C1 (stereo not drawn) -17.5%
CC(C)CC(=O)Nc1ccc2nc(SCC(=O)N3CCc4ccccc43)sc2c1 1.32%
CCOc1ccccc1CNC(=O)c1sc2ncccc2c1-n1cccc1 -21.8%
CCOc1cc(C2c3c(-c4cc(C)ccc4O)n[nH]c3C(=O)N2CCCOC(C)C)ccc1O (stereo not drawn) -15.7%
CCn1ccc2cc(S(=O)(=O)N3CCCN(C(=O)Nc4ccccc4F)CC3)ccc21 6.13%
O=C(COC(=O)c1cc(-c2cccs2)nc2ccccc12)c1ccc(F)cc1 9.27%
O=C(CSc1nnc(-c2ccc3c(c2)OCO3)o1)Oc1ccccc1 -0.93%
COc1cccc(Cn2c(SCC(=O)N3CCN(c4ccc(F)cc4)CC3)nc3ccccc32)c1 -3.29%
O=C(Cn1c(=O)n(Cc2nc(-c3ccccc3)no2)c(=O)c2cc3c(cc21)OCO3)Nc1ccccc1 -0.109%
CCC(C)n1c(=O)c2sccc2n2c(CCCC(=O)N3CCN(c4ccccc4)CC3)nnc12 (stereo not drawn) -9.38%
CCOc1ccc(-n2c(SCC(=O)Nc3cc(C)ccc3C)nc3c([nH]c4ccccc43)c2=O)cc1 -2.71%
Cc1ccc(Cn2cc(S(=O)(=O)c3cccc(C)c3)c(=O)c3cc(F)c(N4CCOCC4)cc32)cc1 -5.04%
COc1cccc(Cc2nc3ccccc3nc2SCC(=O)Nc2cccc(C)c2)c1 -7.53%
COc1ccc(CNC(=O)c2sc3nc4n(c(=O)c3c2C)CCCC4)cc1 8.62%
O=C(Nc1cc(-c2ccccc2)sc1C(=O)O)c1cccc(F)c1 -10.8%
O=C(Cc1ccccc1)Nc1sc2c(c1C(=O)Nc1ccccc1Cl)CCCCC2 -1.99%
